Measured values taken from PubChem BioAssay AID493208 (National Center for Advancing Translational Sciences (NCATS), 2011).
About 340 (0.77%) of roughly 44,000 compounds were called active. Not shown: some 5% with an inconclusive outcome. Calls follow the shape of the dose curve; as a rule, active = well fitted inhibition curve with a large enough effect; inconclusive = small, poorly fitted or top-dose-only effect; inactive = flat fitted curve, though single readings scatter. The list shows a part of the results.

Assay: Acumen qHTS Assay for Inhibitors of the mTORC1 Signaling Pathway in MEF (Tsc2-/-, p53-/-) Cells: Sytravon;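 also: plate controls were DMSO for no effect and rapamycin for full effect; nearly all actives have a fitted effect of over 50% in size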
Details: phospho-rpS6 immunofluorescence/PI, 24 h; series mostly up to 38.3 µM; activity change, negative = inhibition: at the top concentration
Summary of the method: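 Tsc2-/-, p53-/- mouse embryonic fibroblasts (empty-vector line) exposed to compound 24 hrs at 37 C, fixed, immunostained for phospho-rpS6 and counterstained with propidium iodide. Acumen laser scanning gives % positive cells from Alexa 488/PI ratio, thresholded using 7.5 nM rapamycin; PI count gives viability.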

Compound | activity change, negative = inhibition
COc1ccccc1-c1nc2c3c(-c4ccccc4)c(-c4ccccc4)oc3ncn2n1 | inactive: 9.79%
CCN(CC)CCOC(=O)c1ccc(NC(=O)Cn2ncc3c([nH]c4ccc(C)cc43)c2=O)cc1 | inactive: 5.91%
Cc1ccccc1CS(=O)(=O)CC1Nc2ccc(C(=O)NCc3ccc(Cl)cc3)cc2NC1=O (centres undefined) | inactive: -9.89%
Cc1ccc(-n2nc(C)c(C(=O)NCCCN3CCN(c4ccc(F)cc4)CC3)c2-n2cccc2)cc1 | inactive: -15.4%
Cc1ccc(C)c(Cn2c3ccccc3c3cnn(CC(=O)NCCCc4ccccc4)c(=O)c32)c1 | inactive: -13.1%
CCOc1ccc(-c2nonc2NC(=O)c2oc3c(C)c(C)ccc3c2C)cc1OCC | inactive: -6.28%
Cc1ccccc1CNC(=O)C1CCN(c2nnc(-n3c(C)ccc3C)s2)CC1 | inactive: 0.223%
Cc1cccc(NC(=O)N2CCC(CN3CCC(C)CC3)CC2)c1C | inactive: -9.91%
CC(=O)Nc1c(C)nn(-c2ccccc2)c1N1CCC(C(=O)Nc2ccc(F)cc2Cl)CC1 | inactive: 4.31%
CCc1cccc(CC)c1NC(=O)C(CC)n1nc(C)n2c(cc3cc(C)ccc32)c1=O (centres undefined) | inactive: -3.81%
CCOC(=O)c1c(C)[nH]c(C)c1S(=O)(=O)N1CCCC(C(=O)Nc2ccccc2OCC)C1 (centres undefined) | inactive: -10.6%
Cc1ccc2c(c1)C(c1ccccc1)N(C(=O)c1ccccc1F)CC(=O)N2 (centres undefined) | inactive: -1.1%
CCCn1c(SCc2nc(-c3cc(OC)ccc3OC)no2)nnc1-c1ccc(Cl)cc1 | inactive: -1.47%
CCOC(=O)c1cccc(NC(=O)c2cc3cc4ccc(C)cc4nc3o2)c1 | inactive: -5.09%
CCN1CCN(c2csc3ccc(C)cc3c2=O)CC1 | inactive: 4.77%
Cc1ccc(-n2ncc(C(=O)Nc3ccc4c(c3)OCCO4)c2C2CCN(C(=O)OC(C)(C)C)CC2)cc1 | inactive: 1.88%
Cc1ccccc1-c1noc(-c2cc3ccccc3oc2=O)n1 | inactive: 5.43%
Cc1ccc(-c2nc(CS(=O)(=O)CC(=O)N3CCN(c4cccc(C)c4C)CC3)c(C)o2)cc1 | inactive: -2.31%
CC1CCN(S(=O)(=O)c2ccc3c(c2)oc(=O)n3CC(=O)NC(C)c2ccccc2)CC1 (centres undefined) | inactive: -10.3%
CCCc1ccc(OC(C)C(=O)Nc2sc3c(c2C(=O)OC)CCCCC3)cc1 (centres undefined) | inactive: 3.41%
CSc1nc(Nc2cccc(C)c2)c(C#N)c(-c2ccccc2)n1 | inactive: -6.01%
CNc1c(NC(=O)c2cc(OC)cc(OC)c2)c(=O)oc2ccccc12 | inactive: 3.19%
Cn1c(SCC(=O)N2CCCc3ccccc32)ncc(C(=O)Nc2ccc(F)cc2)c1=O | inactive: -2.3%
CCOC(=O)c1cnc2ccc(OC)cc2c1NCCc1ccc(OC)c(OC)c1 | inactive: -16.9%

Compound | activity change, negative = inhibition
Cc1cccc(CNC(=O)c2cccc(NC(=O)N3CCSc4ncccc43)c2)c1 | inactive: -10.2%
COc1ccc2c(c1)c1c(c(=O)n(-c3ccc(C)cc3)c(=O)n1CC(=O)N1CCCC1)n2C | inactive: -8.74%
CCOc1ccc(-n2ccn3c(CC(C)CC(=O)O)nnc3c2=O)cc1 (centres undefined) | inactive: -9.71%
Cc1ccccc1-c1nc2cc(NC(=O)c3cccc(OCCC(C)C)c3)ccc2o1 | inactive: -11.1%
CCC12CN3CC(C)(CN(C1)C3c1ccccc1C)C2=O (centres undefined) | inactive: 3.05%
CCCCN(Cc1ccccc1)S(=O)(=O)c1cc(Br)cc2c1N(C(=O)C1CC1)CC2 | inactive: 0.237%
CCOC(=O)N1CCC(NC(=O)c2ccc3c(c2)N(Cc2ccccc2)C(=O)c2ccccc2S3=O)CC1 (centres undefined) | inactive: -17.5%
CC(=O)C1=C(c2ccc(Cl)c(Cl)c2)N(C(C)=O)n2c(nnc2C2CCCCC2)S1 | inactive: -5.12%
O=C(CCc1nnc2n(Cc3ccccc3Cl)c(=O)c3ccccc3n12)Nc1ccc(F)cc1 | inactive: -11.8%
CCCNC(=O)CCn1nc(-c2ccccc2)c2ccccc2c1=O | inactive: 3.06%
O=C(CSc1nnc(CNC(=O)c2ccccc2F)n1-c1ccccc1)Nc1ccccc1F | inactive: -0.493%
Cc1ccc(S(=O)(=O)c2cnc(SC(C)C(=O)Nc3ccccc3)[nH]c2=O)cc1 (centres undefined) | inactive: -1.76%
CCC(Cn1nnc2ccccc2c1=O)NC(=O)Nc1ccc(C)cc1 (centres undefined) | inactive: -0.116%
CCOc1ccc(OCC)c(NC(=O)c2cc(CN3CCOCC3)on2)c1 | inactive: 7.45%
CCOC(=O)C1CCCN(C(=O)c2cccc(NC(=O)c3nsc4ccccc34)c2)C1 (centres undefined) | inactive: -9.57%
Cc1ccc(NC(=O)CCNS(=O)(=O)c2ccc(Br)s2)cc1 | inactive: -0.511%
COc1cc(C2C(=O)N(C3CCCCCC3)CC(=O)N2CCC2=CCCCC2)ccc1OC(C)C (centres undefined) | inactive: 8.84%
O=C(NCCS(=O)(=O)N1CCN(c2ccccc2F)CC1)C(c1ccccc1)c1ccccc1 | inactive: 3.37%
O=C(Nc1ccccc1Cl)c1cc(S(=O)(=O)N2CCC3(CC2)OCCO3)ccc1F | inactive: 7.81%
Cc1ccc(-c2nc(NC(=O)CSc3ncnc4sc5c(c34)CCC(C)C5)ns2)cc1 (centres undefined) | inactive: 9.46%
CCn1cc2nc(SCc3ccccc3Cl)n(CCc3ccccc3)c(=O)c2n1 | inactive: -5.43%
COc1ccc(-n2cc(C(=O)OCc3ccc(F)c(F)c3)c3ccccc3c2=O)cc1 | inactive: -4.99%
CCc1ccc(NS(=O)(=O)c2ccc3[nH]cc(C(=O)NCCc4cccc(C)c4)c(=O)c3c2)cc1 | inactive: 0.184%
Cc1cccc(N2CCN(C(=O)CCc3c(C)nc4c(c3C)c(=O)n(C)c(=O)n4C)CC2)c1C | inactive: 1.07%

Compound | activity change, negative = inhibition
Cc1ccc(OC(=O)c2cc(-c3ccc(Cl)cc3)on2)c(C)c1 | inactive: -3.63%
O=C(NC1(C(F)(F)F)C(=O)Nc2c1c(=O)[nH]c(=O)n2-c1ccc(F)cc1)c1ccccc1 (centres undefined) | inactive: 9.98%
COc1ccc(C2C(=O)N(C3CCCCC3)CC(=O)N2CCC2=CCCCC2)cc1 (centres undefined) | inactive: 7.93%
CCOc1ccc(-n2c(=O)c3sc4ccccc4c3n(Cc3cccc(C)c3)c2=O)cc1 | inactive: -13.5%
CC1CCC(NC(=O)c2ccc3c(c2)N(Cc2ccccc2F)C(=O)c2ccccc2S3=O)CC1 (centres undefined) | inactive: 0.919%
CCOc1ccc(CCNC(=O)Cn2ncn3c(cc4sc(C)cc43)c2=O)cc1OCC | inactive: 0.42%
COc1ccc2c(c1)sc1ncc(C(=O)NCc3ccc(Cl)cc3)c(=O)n12 | inactive: -1.91%
CCN1CCN(c2oc(/C=C/c3ccc(OC)c(OC)c3)nc2C#N)CC1 | inactive: -10.5%
O=C(NCc1ccccc1)C(=O)NCC(c1ccc2c(c1)OCO2)N1CCOCC1 (centres undefined) | inactive: -6.98%
Clc1ccc(-c2cn3ncsc3n2)cc1 | inactive: -7.5%
COc1cccc(CNC(=O)C(NS(=O)(=O)c2cccs2)C(C)C)c1 (centres undefined) | inactive: -7.78%
COc1cccc(CNC(=O)c2ccc3nc(N4CCCCC4)sc3c2)c1OC | inactive: -0.0621%
COc1ccccc1NC(=O)c1cc(S(=O)(=O)NCCc2ccccc2)ccc1F | inactive: -4.31%
Cc1ccc(CN2CCSc3ccc(C(=O)N4CCN(c5ccc(Cl)cc5)CC4)cc32)cc1 | inactive: 2.85%
CCCCN1C(=O)c2[nH]nc(-c3ccccc3O)c2C1c1cc(Br)c(O)c(OC)c1 (centres undefined) | inactive: 3.4%
O=c1c2cccnc2n(Cc2ccccc2F)c(=O)n1Cc1ccc(F)cc1 | inactive: -4.43%
COc1ccc(NC(=O)Cn2c3ncccc3c(=O)n2-c2ccc(C)c(C)c2)c(OC)c1 | inactive: 8.48%
O=S(=O)(Nc1ccc2nc(-c3ccc(F)cc3)oc2c1)c1ccccc1 | inactive: -7.33%
CCOCCCNC(=O)C(c1ccc(OC)cc1)N(Cc1ccc2c(c1)OCO2)C(=O)c1ccc(NC(C)=O)cc1 (centres undefined) | inactive: 2.36%
CCCCc1nn2c(=O)cc(COC(=O)c3ccc(NC(=O)c4ccccc4Cl)cc3)nc2s1 | inactive: 2.31%
Cc1nnc(NC(=O)CSc2nc3c([nH]c4ccccc43)c(=O)n2-c2ccc(Cl)cc2)s1 | inactive: -1.03%
CC(=O)Nc1cc(C(=O)NCc2ccccc2Cl)ccc1Sc1ccc(F)cc1 | inactive: 10.9%
Cc1cc(C)cc(NC(=O)c2cc(S(=O)(=O)NCCC3=CCCCC3)ccc2F)c1 | inactive: 0.759%
Cc1ccc(NC(=O)c2cc(S(=O)(=O)N3CCCCC3)c[nH]2)cc1N(C)C | inactive: -5.02%

Compound | activity change, negative = inhibition
Cc1cccc(C(=O)Nc2ccc3oc(-c4cccc5c(Br)cccc45)nc3c2)c1 | inactive: 3.58%
COc1ccc(CCNCc2c(C(=O)O)c(C)n(Cc3c(F)cccc3Cl)c2C)cc1OC | inactive: -6.19%
Cc1cc(OCC(=O)Nc2ccc(C(=O)OC3CCCCC3)cc2)cc(C)c1Cl | inactive: 10.6%
COc1ccc2c(c1)CC(C(=O)NCc1ccc(F)cc1)CO2 (centres undefined) | inactive: -0.786%
CCc1ccc(NC(=O)C2CCN(c3nc(-c4ccc(OC)cc4)no3)CC2)cc1 | inactive: 7.02%
CCOc1ccc2nc(N3CCN(C(=O)c4ccc5c(c4)CCCC5)CC3)sc2c1 | inactive: 2.03%
Cc1ccc2c(c1)C(=O)OC(C(=O)Nc1ncc(Cc3ccccc3Cl)s1)C2 (centres undefined) | inactive: -3.91%
Cc1ccc(-c2cc(-c3ccc4c(c3)NC(=O)CO4)nc3c2COc2ccccc2-3)cc1 | inactive: 5.04%
COc1ccc2c(c1)c1c(c(=O)n(-c3ccc(F)c(Cl)c3)c(=O)n1Cc1cccc(C)c1)n2C | inactive: -3.19%
Cc1ccc(C(=O)Nc2c(C(=O)NC(C)(C)C)oc3ccccc23)cc1 | inactive: -1.49%
CCOc1ccc2c(c1)c(=O)c(C(=O)c1ccccc1)cn2Cc1ccccc1 | inactive: -16.9%
Cc1c(CCC(=O)NCCc2ccccc2)c(=O)oc2cc(O)ccc12 | inactive: 4.63%
CCCS(=O)(=O)c1nc(S(=O)(=O)c2ccc(C)cc2)c(N(CC)CC)s1 | inactive: -0.967%
CCOC(=O)c1ccc(NC(=O)CSc2c(C(C)C)cnc3c2c(=O)n(C)c(=O)n3C)cc1 | inactive: 0%
Cc1ccc(-n2nc(C)c3nc(CCC(=O)Nc4cccc(C)c4C)c(=O)n(C)c32)cc1 | inactive: 0%
Cc1cc(C)c2c(CC(=O)Nc3ccc(F)cc3)coc2c1 | inactive: -11.3%
COc1ccc(CNC(=O)Cn2nc3c(cc2=O)CCCC3)cc1 | inactive: -1.24%
Cc1cccc(N2C(=O)N(Cc3cc(=O)n4ccccc4n3)c3ccccc3S2(=O)=O)c1 | inactive: -4.85%
COc1ccc(C(=O)N2CCN(c3nc4c(C)c(Cl)ccc4s3)CC2)c(OC)c1 | inactive: 3%
CCOc1ccc(NC(=O)CN(C)S(=O)(=O)c2ccc3[nH]c4c(c3c2)CCCC4)cc1 | inactive: -0.312%
Cc1cc(-c2ccc(S(=O)(=O)Nc3cccc(Cl)c3C)cc2)on1 | inactive: -11.5%
Cc1ccc(Cl)cc1N1CCN(C(=O)C2CCCN(Cc3nc(-c4cccc(Cl)c4)oc3C)C2)CC1 (centres undefined) | inactive: -17.9%
